# A collection of fitness landscapes (doi:10.1126/science.1257360)
# Some of the results follow.
# B1: PhoQ; a variant is named by its letters at X, in order, P23837 (parent)
# chain: MKKLLRLFFPLSLRVRFLLATAAVVLVLSLAYGMVALIGYSVSFDKTTFRLLRGESNLFYTLAKWENNKLHVELPENIDKQSPTMTLIYDENGQLLWAQRDVPWLMKMIQPDWLKSNGFHEIEADVNDTSLLLSGDHSIQQQLQEVREDDDDAEMTHSVAVNVYPATSRMPKLTIVVVDTIPVELKSSYMVWSWFIYVLSANLLLVIPLLWVAAWWSLRPIEALAKEVRELEEHNRELLNPATTRELTSLVRNLNRLLKSERERYDKYRTTLTDLTHSLKTPLXXLQXXLRSLRSEKMSVSDAEPVMLEQISRISQQIGYYLHRASMRGGTLLSRELHPVAPLLDNLTSALNKVYQRKGVNISLDISPEISFVGEQNDFVEVMGNVLDNACKYCLEFVEISARQTDEHLYIVVEDDGPGIPLSKREVIFDRGQRVDTLRPGQGVGLAVAREITEQYEGKIVAGESMLGGARMEVIFGRQHSAPKDE
# Variants of: B1
# Assay: enrichment ratio after two sorts for PhoP signalling (ratio (wild type AVST 3.29)); higher = more functional
# Conditions: with PhoP (E. coli)
row,Variant,enrichment ratio
1,TDHQ,≤ 0.25
2,NSWI,0.708
3,RECQ,≤ 0.25
4,GCNY,≤ 0.25
5,PYEW,≤ 0.25
6,TVRS,≤ 0.25
7,WTYT,≤ 0.25
8,PYDV,≤ 0.25
9,VATN,≤ 0.25
10,INQN,≤ 0.25
11,NQWG,≤ 0.25
12,IRMS,≤ 0.25
13,SEPP,≤ 0.25
14,IHCA,≤ 0.25
15,YDKW,≤ 0.25
16,AWDT,≤ 0.25
17,GRES,≤ 0.25
18,WRNQ,≤ 0.25
19,MVTY,≤ 0.25
20,LYDA,≤ 0.25
21,WLMF,≤ 0.25

row,Variant,enrichment ratio
1,LIYN,1.32
2,FVQF,≤ 0.25
3,IKEC,≤ 0.25
4,KGEG,≤ 0.25
5,FKHN,≤ 0.25
6,SCPE,≤ 0.25
7,GGTV,8.45
8,CISL,≤ 0.25
9,WSED,≤ 0.25
10,EPTN,≤ 0.25
11,YRYY,≤ 0.25
12,MKYK,≤ 0.25
13,FNHG,≤ 0.25
14,FMLR,≤ 0.25
15,VLHY,≤ 0.25
16,APPW,≤ 0.25
17,DSVV,≤ 0.25
18,TKNT,8.4
19,IWGY,≤ 0.25
20,SGNT,≤ 0.25
21,QSST,6.68

row,Variant,enrichment ratio
1,LSTY,≤ 0.25
2,LHDF,≤ 0.25
3,DVVM,≤ 0.25
4,SCGT,6.01
5,DRVP,≤ 0.25
6,VGLH,1.9
7,IKIT,≤ 0.25
8,VPVE,≤ 0.25
9,MENC,≤ 0.25
10,VWLK,≤ 0.25
11,GWQG,≤ 0.25
12,IRGR,≤ 0.25
13,ITVC,≤ 0.25
14,MNVS,≤ 0.25
15,QIDI,≤ 0.25
16,NIFN,≤ 0.25
17,KLNS,≤ 0.25
18,MQWY,≤ 0.25
19,FDNF,≤ 0.25
20,NTFH,≤ 0.25
21,AGGW,0.253

row,Variant,enrichment ratio
1,TESN,20.2
2,NYMG,≤ 0.25
3,SRMA,≤ 0.25
4,LPDI,≤ 0.25
5,GGSL,3.4
6,LEIC,≤ 0.25
7,NWLR,≤ 0.25
8,QVDP,≤ 0.25
9,SCRS,≤ 0.25
10,EIRN,≤ 0.25
11,QDCF,≤ 0.25
12,YVAM,≤ 0.25
13,LGWA,≤ 0.25
14,MGFS,2.82
15,DLNS,≤ 0.25
16,KGVC,≤ 0.25
17,LSPQ,≤ 0.25
18,QDVI,≤ 0.25
19,RYNH,≤ 0.25
20,QAYP,≤ 0.25
21,DAEF,≤ 0.25
